# From the supplement of paper PMC3694890
# ± gives the uncertainty stated by the source. Some of the results follow. Phosphotyrosine is written y.
# Target: GRB2 (endogenous complexes from cell lysate), P62993
# Test: GRB2 complex binding differential signal (pY peptide minus Ala control peptide) (fluorescence intensity units); higher = stronger GRB2 complex binding
# Settings: MCF7
# 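Note: phosphopeptide probes on the chip at 1–4 µM, lysate proteins bound in 20 mM Tris pH 7.0 buffer with 140 mM NaCl, 1% Triton X-100 and 5% glycerol.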
row,Binder,GRB2 complex binding differential signal
1,yTLRRP [FLT3_166/A1],1930 ± 370
2,ySISKF [FLT3_401/A1],2630 ± 690
3,yIFHAE [FLT3_416/A1],1.5 ± 120
4,yFYVDF [FLT3_589/A1],159 ± 440
5,yVALDF [ACTS_220/A1],86.8 ± 560
6,yVDFRE [FLT3_591/A1],467 ± 490
7,yEYDLK [FLT3_597/A1],307 ± 190
8,yDLKWE [FLT3_599/A1],29.2 ± 160
9,yPTFQS [FLT3_726/A1],142 ± 480
10,yVVRGN [FLT3_842/A1],4820 ± 800
11,yQNRRP [FLT3_969/A1],44200 ± 4400
12,yRYGTD [FYN_28/A1],587 ± 570
13,yGTDPT [FYN_30/A1],2020 ± 670
14,yPSFGV [FYN_39/A1],-287 ± 280
15,yVPKNF [GRAP2_45/A1],3340 ± 690
16,yELPDG [ACTS_242/A1],7560 ± 620
17,yQNYRI [GRB10_404/A1],22000 ± 5600

# Same assay, conditions: MCF10A
row,Binder,GRB2 complex binding differential signal
1,yTLRRP [FLT3_166/A1],1050 ± 530
2,ySISKF [FLT3_401/A1],765 ± 240
3,yIFHAE [FLT3_416/A1],67.3 ± 150
4,yFYVDF [FLT3_589/A1],36.5 ± 130
5,yVALDF [ACTS_220/A1],268 ± 360
6,yVDFRE [FLT3_591/A1],94.2 ± 180
7,yEYDLK [FLT3_597/A1],146 ± 220
8,yDLKWE [FLT3_599/A1],39.2 ± 230
9,yPTFQS [FLT3_726/A1],55 ± 150
10,yVVRGN [FLT3_842/A1],2220 ± 650
11,yQNRRP [FLT3_969/A1],12200 ± 4900
12,yRYGTD [FYN_28/A1],259 ± 480
13,yGTDPT [FYN_30/A1],1450 ± 500
14,yPSFGV [FYN_39/A1],68.2 ± 140
15,yVPKNF [GRAP2_45/A1],1870 ± 630
16,yELPDG [ACTS_242/A1],3320 ± 770
17,yQNYRI [GRB10_404/A1],25900 ± 3800

# Same assay, conditions: MDA-MB-231
row,Binder,GRB2 complex binding differential signal
1,yTLRRP [FLT3_166/A1],882 ± 320
2,ySISKF [FLT3_401/A1],716 ± 300
3,yIFHAE [FLT3_416/A1],373 ± 280
4,yFYVDF [FLT3_589/A1],266 ± 380
5,yVALDF [ACTS_220/A1],1760 ± 710
6,yVDFRE [FLT3_591/A1],392 ± 460
7,yEYDLK [FLT3_597/A1],1080 ± 370
8,yDLKWE [FLT3_599/A1],354 ± 320
9,yPTFQS [FLT3_726/A1],-114 ± 1000
10,yVVRGN [FLT3_842/A1],691 ± 230
11,yQNRRP [FLT3_969/A1],3880 ± 830
12,yRYGTD [FYN_28/A1],443 ± 230
13,yGTDPT [FYN_30/A1],729 ± 300
14,yPSFGV [FYN_39/A1],282 ± 280
15,yVPKNF [GRAP2_45/A1],680 ± 300
16,yELPDG [ACTS_242/A1],2810 ± 850
17,yQNYRI [GRB10_404/A1],9000 ± 1200

# Same assay, conditions: T47D
row,Binder,GRB2 complex binding differential signal
1,yTLRRP [FLT3_166/A1],368 ± 940
2,ySISKF [FLT3_401/A1],681 ± 1600
3,yFYVDF [FLT3_589/A1],165 ± 1100
4,yVALDF [ACTS_220/A1],3460 ± 2800
5,yVDFRE [FLT3_591/A1],1260 ± 1000
6,yEYDLK [FLT3_597/A1],700 ± 910
7,yDLKWE [FLT3_599/A1],23.3 ± 1100
8,yPTFQS [FLT3_726/A1],281 ± 1000
9,yVVRGN [FLT3_842/A1],919 ± 1000
10,yQNRRP [FLT3_969/A1],7020 ± 2200
11,yRYGTD [FYN_28/A1],848 ± 990
12,yGTDPT [FYN_30/A1],304 ± 860
13,yPSFGV [FYN_39/A1],458 ± 1200
14,yVPKNF [GRAP2_45/A1],1830 ± 1500
15,yELPDG [ACTS_242/A1],2240 ± 1000
16,yQNYRI [GRB10_404/A1],33100 ± 11000
